From PubChem BioAssay AID1479 (National Center for Advancing Translational Sciences (NCATS), 2009)
Out of some 280,000 compounds screened, about 820 (0.29%) were called active. Inconclusive results (about 1%) are left out. Calls come from the whole dose curve; as a rule, active = well fitted curve in either direction with a large enough effect; inconclusive = small, poorly fitted or top-dose-only effect; inactive = flat fitted curve, though single readings scatter. The list shows a part of the results, in another mix than the full data. Where a structure was tested more than once in an assay, its records may differ in their call.

Assay: Total Fluorescence Counterscreen for Inhibitors of the Interaction of Thyroid Hormone Receptor and Steroid Receptor Coregulator 2
Settings: TRb/SRC2 Texas Red total fluorescence interference; series mostly up to 106 µM; fluorescence change, negative = quenching: at the top concentration
From the text: NIH Molecular Libraries Probe Production Network [MLPCN]
NIH Chemical Genomics Center [NCGC]
Assay Provider: R. Kip Guy, St. Jude Children's Research Hospital
Thyroid receptor (TR) regulates many homeostatic processes including basal metabolism, cardiovascular function, body weight, and lipid trafficking. TR modulators are potential therapeutics for obesity and hyperlipidemias but current thyroid analogs have undesirable side effects, particularly cardiac stimulation. To identify inhibitors that specifically prevent the interaction of TR with the steroid receptor […] 2 (SRC2), a fluorescence polarization assay was screened. This assay detects interaction of the ligand-binding domain of human TRb with a Texas Red labeled SRC2 peptide, corresponding to a 20 amino acid region of the nuclear receptor interaction domain (Arnold et al., 2006). Total fluorescence (555 nm excitation and 632 nm emission) was measured to identify potential fluorescent and light absorbing compounds. Such compounds may be artifacts that interfere with the fluorescence polarization assay.
Arnold, L. A.; Estebanez-Perpina, E.; Togashi, M.; Shelat, A.; Ocasio, C. A.; McReynolds, A. C.; Nguyen, P.; Baxter, J. D.; Fletterick, R. J.; Webb, P.; Guy, R. K. A high-throughput screening method to identify small molecule inhibitors of thyroid hormone receptor coactivator binding. Sci STKE 2006, p 13.
NCGC Assay Protocol Summary:
For screening, 5 uL/well 0.6 uM TRb and 20 nM SRC2 Texas Red in protein buffer (20mM Tris hydrochloride, 100mM NaCl, 10% glycerol, 1mM EDTA, 0.01% NP-40, 1mM DTT, 1uM T3 and 5% DMSO) was dispensed into black solid 1536-well plates (Grenier) using a solenoid-based dispenser. Following transfer of 23 nL compound or DMSO vehicle by a pin tool, the plates were centrifuged 15 s at 1000 RPM and incubated 5 hr at ambient temperature. The plates were read by an Envision (Perkin Elmer) to detect fluorescence polarization of SRC2 Texas Red (555 nm excitation and 632 nm emission). Data were normalized to unbound (all components except TRb) and bound SRC2 Texas Red controls. Total fluorescence (TF) was calculated as follows: TF = S + 2P where S and P are fluorescence readings in the parallel and perpendicular channels, respectively.
Keywords: NIH Roadmap, MLPCN, MLI, MLSMR, qHTS, NCGC, qHTS, thyroid hormone receptor, steroid receptor coactivator, fluorescence polarization
% is set by controls: 0 for no effect and ±100 for the full control effect; potency is the fitted concentration of half-maximal effect; tags give direction and shape of the fitted curve or compound fluorescence and quenching.

Structure (SMILES)	Potency	fluorescence change, negative = quenching
COc1ccc(C(=O)N2CCCC2=O)cc1	inactive	
C=CCN1CCc2cccc3c2C1Cc1ccc(O)c(O)c1-3 (configuration not stated)		inactive: -0.538%
CN1C(=O)CCS(=O)(=O)[C@H]1c1ccc(Cl)cc1		inactive: -1.64%
CC(C)[C@@]1(NC(=O)[C@@H]2C[C@@H]3c4cccc5[nH]cc(c45)C[C@H]3N(C)C2)O[C@@]2(O)[C@@H]3CCCN3C(=O)[C@H](Cc3ccccc3)N2C1=O	inactive	
CC(C)[C@@]1(NC(=O)[C@@H]2C[C@H]3c4cccc5[nH]cc(c45)C[C@@H]3N(C)C2)O[C@@]2(O)[C@H]3CCCN3C(=O)[C@H](Cc3ccccc3)N2C1=O	inactive	
Cc1ccc(OCC(=O)Nc2ccc(Cl)cc2C(=O)c2ccccc2)cc1		inactive: -3.05%
CC(C)(O)C(Cl)(Cl)Cl		inactive: -0.616%
[O]=[Cr](=[O])([OH])[O][Cr](=[O])(=[O])[OH]		inactive: -5.76%
C#CC1(O)CCC2C3CCC4=CC(=O)CCC4(C)C3CCC21C (configuration not stated)		inactive: 0.312%
CC1CCC2(OC1)OC1CC3C4CC[C@@H]5CC(O)CC[C@@]5(C)C4CC(=O)[C@]3(C)C1C2C (some centres not stated)		inactive: -3.08%
CN(C)C1C(=O)C(C(N)=O)=C(O)[C@@]2(O)C(=O)C3=C(O)c4c(O)ccc(Cl)c4[C@](C)(O)C3CC12 (some centres not stated)		inactive: -4.93%
CCCN(CCC)CCc1c[nH]c2ccc(C(N)=O)cc12		inactive: -0.378%
CN(C)C1C(=O)C(C(N)=O)=C(O)[C@@]2(O)C(=O)C3=C(O)c4c(O)cccc4[C@@](C)(O)C3C[C@@H]12 (some centres not stated)		inactive: -6.81%
CN1Cc2ccccc2[C@@H]2c3cccc4[nH]cc(c34)C[C@H]21		inactive: 23.3%
CNC(=O)Oc1ccc2c(c1)[C@@]1(C)CCN(C)C1N2C (some centres not stated)	inactive	
CC(C)N(CCC(C(N)=O)(c1ccccc1)c1ccccn1)C(C)C (configuration not stated)	inactive	
C[C@H]1CCC/C=C/C2C[C@H](O)CC2[C@H](O)/C=C/C(=O)O1 (some centres not stated)		inactive: -4.61%
C/C(O)=C(/C#N)C(=O)Nc1cc(Br)ccc1Br		inactive: -2.55%
O=C(Cc1cc(=O)[nH][nH]1)N/N=C/c1ccccc1Cl	active: 1410 µM [quencher]	

Structure (SMILES)	Potency	fluorescence change, negative = quenching
CNC(=O)Oc1ccc2c(c1)C1(C)CCN(C)C1N2C (configuration not stated)		inactive: -2.37%
C#C[C@]1(O)CC[C@H]2[C@@H]3CCC4=CC(=O)CC[C@]4(C)[C@H]3CC[C@@]21C		inactive: -2.89%
CC[C@H](CO)Nc1nc(NCc2ccccc2)c2ncn(C(C)C)c2n1	inactive	
CN(C)C1C(=O)C(C(N)=O)C(=O)C2(O)C(=O)C3C(=O)c4c(O)cccc4C(C)(O)C3C(O)C12 (configuration not stated)	active: 28.2 µM [quencher]	
C[N+]1(C)CCC(OC(=O)C(c2ccccc2)c2ccccc2)CC1	inactive	
CN(C)C1C(=O)C(C(N)=O)=C(O)[C@@]2(O)C(=O)C3=C(O)c4c(O)cccc4[C@](C)(O)C3C(O)C12 (some centres not stated)		inactive: -16.6%
O=C1NC(=O)N(c2ccccc2)C(=O)/C1=C\c1ccc([N+](=O)[O-])s1		inactive: -2.52%
ClC1=C(Cl)C(Cl)(C2(Cl)C(Cl)=C(Cl)C(Cl)=C2Cl)C(Cl)=C1Cl	active: 31.6 µM [quencher]	
C[C@H]1CCC/C=C/C2C[C@H](O)C[C@H]2[C@H](O)/C=C/C(=O)O1 (some centres not stated)	inactive	
CC(C)NC[C@@H](O)COc1cccc2[nH]ccc12		inactive: -2.61%
CC1CCC/C=C/C2CC(O)CC2C(O)/C=C/C(=O)O1 (configuration not stated)		inactive: -0.057%
COc1ccc(N2C(=O)NC(=O)/C(=C/c3ccc([N+](=O)[O-])s3)C2=O)cc1		inactive: 1.24%
C[C@H]1CCCC=CC2C[C@H](O)C[C@@H]2[C@H](O)/C=C\C(=O)O1 (some centres not stated)		inactive: -1.31%
N[C@H](CCCCCP(=O)(O)O)C(=O)O	inactive	
COCC(C)N(C(=O)CCl)c1c(C)csc1C (configuration not stated)		inactive: -0.785% [at 201 µM]
CCCN1CCCC2Cc3[nH]ncc3CC21 (configuration not stated)		inactive: -5.84%
CC(C)(C)[C@]1(O)C[C@@H]2OC(=O)CC23C(=O)O[C@@H]2OC(=O)[C@H](O)C231 (some centres not stated)		inactive: -0.729%
CC(C)[C@@]1(NC(=O)[C@H]2CC3c4cccc5[nH]cc(c45)C[C@H]3N(C)C2)O[C@@]2(O)C3CCCN3C(=O)[C@@H](Cc3ccccc3)N2C1=O (some centres not stated)	inactive	
NC[C@@H](CC(=O)O)c1ccc(Cl)cc1		inactive: 0.285%

Structure (SMILES)	Potency	fluorescence change, negative = quenching
CC[C@@H](CO)NC(=O)[C@H]1C=C2c3cccc4c3c(cn4C)C[C@H]2N(C)C1	inactive	
CCCN1CCC[C@@H]2Cc3[nH]ncc3C[C@H]21	inactive	
Nc1nc2ccc(Cl)cc2c2nc(-c3ccco3)nn12	inactive	
c1cncc(C2=NCCC2)c1		inactive: -0.707%
CC(=O)OC1C[C@H](O[C@@H]2C(O)C[C@H](O[C@@H]3C(O)C[C@@H](OC4CC[C@]5(C)C(CCC6C5CC(O)[C@@]5(C)C(C7=CC(=O)OC7)CC[C@@]65O)C4)OC3C)OC2C)O[C@H](C)[C@H]1O[C@H]1OC(CO)C(O)C(O)C1O (some centres not stated)		inactive: -1.81%
CC(C)(C)[C@]1(O)C[C@@H]2OC(=O)C[C@@]23C(=O)O[C@@H]2OC(=O)[C@H](O)[C@]213	inactive	
O=c1cc(-c2ccc(O)c(O)c2)oc2cc(O)cc(O)c12	inactive	
C[N+]1=C(/C=C/Nc2ccccc2)C(C)(C)c2ccccc21		inactive: -3.96%
CC(C)N(CC[C@@](C(N)=O)(c1ccccc1)c1ccccn1)C(C)C		inactive: -0.679%
FC(F)(F)c1cccc(N2CCNCC2)c1	inactive	
COC[C@H]1OC(=O)c2coc3c2[C@@]1(C)C1=C(C3=O)[C@H]2CCC(=O)[C@@]2(C)C[C@H]1OC(C)=O		inactive: 23.9%
CN(C)[C@@H]1C(=O)C(C(N)=O)=C(O)[C@]2(O)C(=O)C3=C(O)c4c(O)cccc4[C@@](C)(O)[C@H]3[C@H](O)[C@@H]12		inactive: -7.77% [at 53 µM]
CN(C)[C@@H]1C(=O)C(C(N)=O)=C(O)[C@@]2(O)C(=O)C3=C(O)c4c(O)cccc4[C@@](C)(O)[C@H]3[C@H](O)[C@@H]12	inactive	
CN1C(=O)CCS(=O)(=O)C1c1ccc(Cl)cc1 (configuration not stated)	inactive	
CCC1/C=C/C=CCC(C)C(O)[C@@](C)(O)C(=O)C(C)C(O)C(C)C(=O)C(C)C(O)C(C)C=CC(=O)O[C@H]2C(C)C(CC1)O[C@]1(CCC(C)C(CC(C)O)O1)C2C (some centres not stated)		inactive: -1.66%
CC(C)NC[C@H](O)COc1cccc2[nH]ccc12	inactive	
NCC(CP(=O)(O)O)c1ccc(Cl)cc1 (configuration not stated)		inactive: -2.88%
O=c1c(O)c(-c2ccc(O)c(O)c2)oc2cc(O)cc(O)c12	inactive	
c1ccc(C2CC2)c(OCC2=NCCN2)c1	inactive	
